From US20230270706A1, “TRANS-CROCETIN COMPOSITIONS AND TREATMENT REGIMENS” (priority 2020, published 2023)

Key:
[1] = in vivo
[2] = in vivo; cited from earlier work
[3] = Phase 2 clinical study of liposomal trans-crocetin: pharmacokinetics; type: in vivo, humans; conditions: across different dosing regimens
[4] = up to approximately 1.3 to 150 μmol/L (equivalent to 0.4 to 49 μg/mL); plasma; cited from earlier work

For `CC(/C=C/C=C(\C)C(=O)[O-])=C\C=C\C=C(C)\C=C\C=C(/C)C(=O)[O-].[Na+].[Na+]` [STC free drug, sodium trans-crocetinate], the “t1/2 in a mouse PK study” value [1] is listed as “half an hour” and the “safety in clinical trials” value [2] is listed as “no safety concerns”.

For `CC(/C=C/C=C(\C)C(=O)O)=C\C=C\C=C(C)\C=C\C=C(/C)C(=O)O` [trans-crocetin], the “AUC and Cmax across body weights” value [3] is given as “stable levels of AUC and Cmax across a wide range of body weights” and the “improvement in diffusion capacity (oxygen)” value [4] is given as 30%.
